# From paper PMC5892938
# Some of the results follow. At the low end of the ranking the order means little.
# Biological target: GST-SBP-SLBP (stem-loop binding protein) (UniProt Q14493)
# Assay: targeted RNA Bind-n-Seq;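 also: DESeq read counts versus GST-SBP nonspecific binding control pulldown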
# Details: RBNS binding buffer: 25 mM Tris pH 7.5, 150 mM KCl, 3 mM MgCl2, 0.1% Tween, 0.5 mg/mL BSA, 1 mM DTT; 27 nM protein, 750 pM RNA pool; temperature not stated; high values mean tight binding
row,Sequence,binding signal (log2 fold change)
1,GGUCACGUCUCAAUCAACUCAAUCUCAGGAGUUUCCUCCUGUAUAUUCAACAGCUCGCAGUCAAG,0.0237
2,GGUCACGUCUCAAUCAACUCCCUAGAGGGGGGGAAAACCCCUUUGCCCUCCACAUCAACAGCUCGCAGUCAAG,-0.254
3,GGUCACGUCUCAAUCAACUCUUUCUCCAGGGAAACCCCUGGCUUAUUCAACAGCUCGCAGUCAAG,-0.0316
4,GGUCACGUCUCAAUCAACUCUUCUUCAGGAGUUUCCUCCUGUUAUGUCAACAGCUCGCAGUCAAG,0.0846
5,GGUCACGUCUCAAUCAACUCACACGAGGGGGGGAAAACCCCUUUACCCUCUCCAUCAACAGCUCGCAGUCAAG,0.2
6,GGUCACGUCUCAAUCAACUCAACUCCCAGGGAAAGCCCUGGCUUUCUCAACAGCUCGCAGUCAAG,0.0433
7,GGUCACGUCUCAAUCAACUCUUCUCCCAGGGAAAGCCCUGGCAUAUUCAACAGCUCGCAGUCAAG,0.256
8,GGUCACGUCUCAAUCAACUCUACUUCAGGAGUUUCCUCCUGCAAAUUCAACAGCUCGCAGUCAAG,0.112
9,GGUCACGUCUCAAUCAACUCUUCUUCCAGGGAAAUCCCUGGCUAUCUCAACAGCUCGCAGUCAAG,0.00216
10,GGUCACGUCUCAAUCAACUCAAUUUCCAGGGAAAUCCCUGGCAUAUUCAACAGCUCGCAGUCAAG,0.0499
11,GGUCACGUCUCAAUCAACUCAAAAGAGGGGGGGAAAACCCCUUUACCCUCAACCUCAACAGCUCGCAGUCAAG,-0.211
12,GGUCACGUCUCAAUCAACUCUUCUUCAGGAGUUUCCUCCUGUAUAUUCAACAGCUCGCAGUCAAG,0.0449
13,GGUCACGUCUCAAUCAACUCAAUUUCAGGAGUUUUCUCCUGUGUAUUCAACAGCUCGCAGUCAAG,-0.14
14,GGUCACGUCUCAAUCAACUCAUCGCCAGGAGUUUACUCCUGUUAAUUCAACAGCUCGCAGUCAAG,-0.0489
15,GGUCACGUCUCAAUCAACUCUAUCUCCAGGGAAAGCCCUGGCAAAUUCAACAGCUCGCAGUCAAG,-0.0197
16,GGUCACGUCUCAAUCAACUCAUUCUCAGGAGUUUUCUCCUGCAUAUUCAACAGCUCGCAGUCAAG,0.151
17,GGUCACGUCUCAAUCAACUCUCUCGAGGGGGGGAAAACCCCUUUACCCUCUAAUUCAACAGCUCGCAGUCAAG,0.0891
18,GGUCACGUCUCAAUCAACUCUUCUCCAGGAGUUUACUCCUGUUAAUUCAACAGCUCGCAGUCAAG,0.0833
19,GGUCACGUCUCAAUCAACUCUAGUCCAGGAGUUUACUCCUGCUUAUUCAACAGCUCGCAGUCAAG,0.0263
20,GGUCACGUCUCAAUCAACUCUAUUUCCAGGGAAAUCCCUGGUUUUCUCAACAGCUCGCAGUCAAG,-0.264
21,GGUCACGUCUCAAUCAACUCCCAAGAGGGGGGGAAAACCCCUUUACCCUCAUCCUCAACAGCUCGCAGUCAAG,-0.0179
22,GGUCACGUCUCAAUCAACUCUUUUUCAGGAGUUUCCUCCUGUUAUGUCAACAGCUCGCAGUCAAG,0.0551
23,GGUCACGUCUCAAUCAACUCUUCCUCAGGAGUUUUCUCCUGUAAUCUCAACAGCUCGCAGUCAAG,-0.0416
24,GGUCACGUCUCAAUCAACUCAAUUUCCAGGGAAAACCCUGGCGUAUUCAACAGCUCGCAGUCAAG,0.25
25,GGUCACGUCUCAAUCAACUCAACUCCCAGGGAAAUCCCUGGCAAUCUCAACAGCUCGCAGUCAAG,0.0457

row,Sequence,binding signal (log2 fold change)
1,GGUCACGUCUCAAUCAACUCAUUCCCCAGGGAAAACCCUGGUAUAUUCAACAGCUCGCAGUCAAG,0.159
2,GGUCACGUCUCAAUCAACUCAAUCCCCAGGGAAAGCCCUGGCAUAGUCAACAGCUCGCAGUCAAG,-0.257
3,GGUCACGUCUCAAUCAACUCAUUCGAGGGGGGGAAAACCCCUUUACCCUCUAUAUCAACAGCUCGCAGUCAAG,-0.133
4,GGUCACGUCUCAAUCAACUCUAUCCCAGGAGUUUCCUCCUGUUAUCUCAACAGCUCGCAGUCAAG,0.201
5,GGUCACGUCUCAAUCAACUCAUCGCCAGGAGUUUGCUCCUGCUAUUUCAACAGCUCGCAGUCAAG,-0.0343
6,GGUCACGUCUCAAUCAACUCUAUCCCAGGAGUUUCCUCCUGCAAUUUCAACAGCUCGCAGUCAAG,0.00385
7,GGUCACGUCUCAAUCAACUCAAUUUCAGGAGUUUACUCCUGUAUUCUCAACAGCUCGCAGUCAAG,0.159
8,GGUCACGUCUCAAUCAACUCAAUCUCAGGAGUUUCCUCCUGUAUAGUCAACAGCUCGCAGUCAAG,-0.0514
9,GGUCACGUCUCAAUCAACUCAAUGUCAGGAGUUUCCUCCUGCUAAUUCAACAGCUCGCAGUCAAG,-0.109
10,GGUCACGUCUCAAUCAACUCCCCAGAGGGGGGGAAAACCCCUUUACCCUCCAUCUCAACAGCUCGCAGUCAAG,0.313
11,GGUCACGUCUCAAUCAACUCUAUCCCCAGGGAAAUCCCUGGUAUUUUCAACAGCUCGCAGUCAAG,-0.179
12,GGUCACGUCUCAAUCAACUCUUCCCCAGGAGUUUACUCCUGCUUUUUCAACAGCUCGCAGUCAAG,0.153
13,GGUCACGUCUCAAUCAACUCAUUCGAGGGGGGGAAAACCCCUUUACCCUCACUCUCAACAGCUCGCAGUCAAG,-0.234
14,GGUCACGUCUCAAUCAACUCCAUCGAGGGGGGGAAAACCCCUUUACCCUCACACUCAACAGCUCGCAGUCAAG,-0.449
15,GGUCACGUCUCAAUCAACUCAACGCCAGGAGUUUACUCCUGUAUAUUCAACAGCUCGCAGUCAAG,0.0411
16,GGUCACGUCUCAAUCAACUCUUUCUCCAGGGAAAACCCUGGCAUUUUCAACAGCUCGCAGUCAAG,0.0858
17,GGUCACGUCUCAAUCAACUCCCCAGAGGGGGGGAAAACCCCUUUGCCCUCAUCUUCAACAGCUCGCAGUCAAG,-0.155
18,GGUCACGUCUCAAUCAACUCAGUUUCAGGAGUUUUCUCCUGCUAUUUCAACAGCUCGCAGUCAAG,0.0795
19,GGUCACGUCUCAAUCAACUCUAUAGAGGGGGGGAAAACCCCUUUGCCCUCGUCAUCAACAGCUCGCAGUCAAG,-0.645
20,GGUCACGUCUCAAUCAACUCUAGUCCCAGGGAAAACCCUGGCUUUUUCAACAGCUCGCAGUCAAG,-0.259
21,GGUCACGUCUCAAUCAACUCUAUCCCCAGGGAAAGCCCUGGCUUUUUCAACAGCUCGCAGUCAAG,-0.0546
22,GGUCACGUCUCAAUCAACUCUUUCCCCAGGGAAACCCCUGGCUAAUUCAACAGCUCGCAGUCAAG,-0.116
23,GGUCACGUCUCAAUCAACUCUUUCUCAGGAGUUUACUCCUGCUUUCUCAACAGCUCGCAGUCAAG,0.0497
24,GGUCACGUCUCAAUCAACUCUAUUCCAGGAGUUUACUCCUGCUUUCUCAACAGCUCGCAGUCAAG,0.0402
25,GGUCACGUCUCAAUCAACUCUUCGCCCAGGGAAACCCCUGGUAUAUUCAACAGCUCGCAGUCAAG,0.107

row,Sequence,binding signal (log2 fold change)
1,GGUCACGUCUCAAUCAACUCAUUUCCCAGGGAAAGCCCUGGCUAACUCAACAGCUCGCAGUCAAG,0.0699
2,GGUCACGUCUCAAUCAACUCCAAAGAGGGGGGGAAAACCCCUUUGCCCUCAAAUUCAACAGCUCGCAGUCAAG,0.295
3,GGUCACGUCUCAAUCAACUCUACUCCCAGGGAAACCCCUGGCUAAUUCAACAGCUCGCAGUCAAG,0.138
4,GGUCACGUCUCAAUCAACUCAAUCCCAGGAGUUUCCUCCUGCUUUUUCAACAGCUCGCAGUCAAG,0.086
5,GGUCACGUCUCAAUCAACUCAGUCUCCAGGGAAAACCCUGGCAAUCUCAACAGCUCGCAGUCAAG,0.0728
6,GGUCACGUCUCAAUCAACUCAAUUCCAGGAGUUUCCUCCUGUUAAUUCAACAGCUCGCAGUCAAG,0.0734
7,GGUCACGUCUCAAUCAACUCAAUUUCCAGGGAAAGCCCUGGCUUUCUCAACAGCUCGCAGUCAAG,0.243
8,GGUCACGUCUCAAUCAACUCAAAAGAGGGGGGGAAAACCCCUUUGCCCUCAUUAUCAACAGCUCGCAGUCAAG,-0.0343
9,GGUCACGUCUCAAUCAACUCAUUUCCAGGAGUUUGCUCCUGCUUAUUCAACAGCUCGCAGUCAAG,0.064
10,GGUCACGUCUCAAUCAACUCUAUGUCCAGGGAAAUCCCUGGCUUUUUCAACAGCUCGCAGUCAAG,-0.352
11,GGUCACGUCUCAAUCAACUCUUUCGAGGGGGGGAAAACCCCUUUACCCUCUUUUUCAACAGCUCGCAGUCAAG,0.175
12,GGUCACGUCUCAAUCAACUCAUCCCCCAGGGAAAUCCCUGGCAUAUUCAACAGCUCGCAGUCAAG,-0.0937
13,GGUCACGUCUCAAUCAACUCUUUCUCAGGAGUUUUCUCCUGCAUAUUCAACAGCUCGCAGUCAAG,-0.0379
14,GGUCACGUCUCAAUCAACUCUUCUUCCAGGGAAAACCCUGGUAUUUUCAACAGCUCGCAGUCAAG,-0.0599
15,GGUCACGUCUCAAUCAACUCCAAAGAGGGGGGGAAAACCCCUUUGCCCUCGUAUUCAACAGCUCGCAGUCAAG,-0.259
16,GGUCACGUCUCAAUCAACUCAAUUCCAGGAGUUUCCUCCUGCUUUCUCAACAGCUCGCAGUCAAG,0.0879
17,GGUCACGUCUCAAUCAACUCAACGCCAGGAGUUUCCUCCUGUAAUCUCAACAGCUCGCAGUCAAG,0.146
18,GGUCACGUCUCAAUCAACUCAACUCCCAGGGAAAUCCCUGGUAUUCUCAACAGCUCGCAGUCAAG,-0.111
19,GGUCACGUCUCAAUCAACUCAAUUCCCAGGGAAACCCCUGGCUAUCUCAACAGCUCGCAGUCAAG,-0.127
20,GGUCACGUCUCAAUCAACUCAUCGGAGGGGGGGAAAACCCCUUUACCCUCAUUAUCAACAGCUCGCAGUCAAG,0.106
21,GGUCACGUCUCAAUCAACUCCACAGAGGGGGGGAAAACCCCUUUACCCUCAUCAUCAACAGCUCGCAGUCAAG,-0.218
22,GGUCACGUCUCAAUCAACUCAAUCCCAGGAGUUUUCUCCUGCAUACUCAACAGCUCGCAGUCAAG,0.144
23,GGUCACGUCUCAAUCAACUCAUCUUCAGGAGUUUACUCCUGUAUAUUCAACAGCUCGCAGUCAAG,0.171
24,GGUCACGUCUCAAUCAACUCAACUCCCAGGGAAAUCCCUGGUUAACUCAACAGCUCGCAGUCAAG,0.134
